The source of these data is PMC4336329 (PLoS ONE, 2015).

About 2,200 (0.71%) of roughly 310,000 compounds showed an effect of 50% or more. The effect is printed as a negative number. The list shows a part of the results.

The target in the assay is human ether-à-go-go-related gene (hERG) potassium channel (human, UniProt Q12809). The assay is described as follows: primary screen, population patch clamp on CHO cells stably expressing hERG.
Chain of human ether-à-go-go-related gene (hERG) potassium channel (Q12809 whole entry, looked up): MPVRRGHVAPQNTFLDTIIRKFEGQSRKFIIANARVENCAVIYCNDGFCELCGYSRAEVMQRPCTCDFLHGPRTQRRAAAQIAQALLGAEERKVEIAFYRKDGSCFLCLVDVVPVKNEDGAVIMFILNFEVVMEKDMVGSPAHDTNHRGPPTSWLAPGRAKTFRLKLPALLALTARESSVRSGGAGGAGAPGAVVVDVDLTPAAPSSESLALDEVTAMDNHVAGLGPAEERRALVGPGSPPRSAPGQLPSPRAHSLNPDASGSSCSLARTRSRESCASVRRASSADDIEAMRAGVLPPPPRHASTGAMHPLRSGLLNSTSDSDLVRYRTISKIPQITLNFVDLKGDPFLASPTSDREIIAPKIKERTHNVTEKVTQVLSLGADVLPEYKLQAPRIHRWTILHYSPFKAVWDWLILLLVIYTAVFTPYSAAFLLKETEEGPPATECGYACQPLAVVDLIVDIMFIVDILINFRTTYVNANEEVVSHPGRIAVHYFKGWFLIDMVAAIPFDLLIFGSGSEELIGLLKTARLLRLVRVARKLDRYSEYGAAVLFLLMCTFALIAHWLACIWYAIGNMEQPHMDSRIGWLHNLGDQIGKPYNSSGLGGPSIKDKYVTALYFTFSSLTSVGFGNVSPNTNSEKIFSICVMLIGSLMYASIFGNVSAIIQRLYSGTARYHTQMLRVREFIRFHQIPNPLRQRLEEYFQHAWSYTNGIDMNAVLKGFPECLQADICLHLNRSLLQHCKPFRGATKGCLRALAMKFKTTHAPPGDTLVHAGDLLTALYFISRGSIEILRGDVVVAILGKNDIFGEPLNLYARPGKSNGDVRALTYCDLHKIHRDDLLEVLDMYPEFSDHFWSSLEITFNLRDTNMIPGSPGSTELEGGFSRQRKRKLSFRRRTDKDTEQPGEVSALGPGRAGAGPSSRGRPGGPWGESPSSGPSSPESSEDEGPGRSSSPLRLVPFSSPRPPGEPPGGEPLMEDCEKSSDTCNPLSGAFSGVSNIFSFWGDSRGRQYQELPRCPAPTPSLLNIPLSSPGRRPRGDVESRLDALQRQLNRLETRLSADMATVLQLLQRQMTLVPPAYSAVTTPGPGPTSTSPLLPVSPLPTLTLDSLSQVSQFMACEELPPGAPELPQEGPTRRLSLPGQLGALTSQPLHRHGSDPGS
For `COc1ccc(S(=O)(=O)Nc2ccc3c(c2)OCCO3)cc1OC`, the “hERG current change (%, negative = inhibition) at 1uM” value amounted to 11.3%.
For the compound `COc1ccc2[nH]cc(C(=O)CN3CC(C)CC(C)C3)c2c1` (centres unmarked), the “hERG current change (%, negative = inhibition) at 1uM” value amounted to 6.1%.
Turning to `Cc1cccc(NC(=O)c2cc(=O)[nH]c3ccccc23)c1`, the “hERG current change (%, negative = inhibition) at 1uM” value turned out to be 20%.
Consider `O=C(CNC(=O)c1cccs1)NCC(=O)OCc1ccccc1Br`, for which the “hERG current change (%, negative = inhibition) at 1uM” value is reported as 5.88%.
Turning to `CCC(=O)N(Cc1ccco1)c1nc(C(=O)Nc2ccc(Cl)cc2)c(C)s1`, the “hERG current change (%, negative = inhibition) at 1uM” value was 12.2%.
For `O=C(COC(=O)/C=C/c1ccccc1Cl)NC1CCCCCC1`, the “hERG current change (%, negative = inhibition) at 1uM” value stood at 5.89%.
With `CC(Sc1nnc(Cc2ccc([N+](=O)[O-])cc2)o1)C(N)=O` (centres unmarked), the “hERG current change (%, negative = inhibition) at 1uM” value is recorded as 2.44%.
Then `Cc1ccc(NC(=O)CN2C(=O)CSC2=O)cc1`, with 7.19%; and `O=C(Nc1cccc(S(=O)(=O)Nc2ccc(Cl)cc2)c1)c1ccc[n+]([O-])c1`, with 9.69%.
On to `CC(NC(=O)COC(=O)CNC(=O)C1CCCCC1)c1ccccc1` (centres unmarked), for which the “hERG current change (%, negative = inhibition) at 1uM” value is listed as 7.99%.
As for `CCC(C)OC(=O)C(C)Oc1ccc(-c2ccccc2)cc1` (centres unmarked), the “hERG current change (%, negative = inhibition) at 1uM” value turned out to be 5.46%.
With `COc1ccc(C(=O)N2CCN(C(=O)C3COc4ccccc4O3)CC2)cc1OC` (centres unmarked), the “hERG current change (%, negative = inhibition) at 1uM” value is 1.84%.
With `CCN(CC)S(=O)(=O)c1ccc(-c2csc(C)n2)s1`, the “hERG current change (%, negative = inhibition) at 1uM” value came out at 6.13%.
As to `CCn1c(SCC(=O)c2cc(C)n(C)c2C)nnc1-c1ccccc1`, the “hERG current change (%, negative = inhibition) at 1uM” value came out at 17.3%.
Then `CSc1ccc(/C=C(/NC(=O)c2ccccc2)C(=O)NCCCn2ccnc2)cc1`, with -15.6%; and `O=C(CN(C(=O)CCC(=O)Nc1nccs1)c1ccc(F)cc1)NCc1ccc2c(c1)OCO2`, with 15.3%.
With `CCC(=O)N(CC(=O)Nc1sc(C)c(C)c1C(N)=O)C1CCCCC1` the figure was 13.9%.
Regarding `O=C(Nc1ccccc1)c1ccc(-c2ccc([N+](=O)[O-])cc2)o1`, the “hERG current change (%, negative = inhibition) at 1uM” value was 9.95%.
Consider `Cc1ccc(SCC(=O)Nc2nncs2)cc1`, for which the “hERG current change (%, negative = inhibition) at 1uM” value is listed as 10.9%.
For the compound `Cn1c(O)c(C=NC2C(=O)C3(C)CCC2C3(C)C)c(=O)n(C)c1=O` (centres unmarked), the “hERG current change (%, negative = inhibition) at 1uM” value is given as 8.64%.
With `Cc1cccc2c(C(=O)N3CCN(c4ccccc4)CC3)cc(-c3ccncc3)nc12` the figure was 8.96%.
Then `O=C(CNC(=O)c1ccccc1Cl)c1ccccc1`, with 19%; and `CCOC(=O)N1CCC2(CC1)C(C#N)=C(N)Oc1c2c(C)nn1-c1cccc(Cl)c1`, with 6.91%; and `O=C(O)CCSc1nc2ccc(Br)cc2[nH]1`, with 2.74%.
Consider `O=C(O)c1cc(O)ccc1-c1ccc(O)cc1`, for which the “hERG current change (%, negative = inhibition) at 1uM” value was 8.59%.
With `C=CCN(c1ccc(C(=O)NCCN2CCOCC2)cc1)S(C)(=O)=O` the figure was 3.57%.
`CCN(Cc1ccccc1)C(=O)COC(=O)Cn1cnc2ccccc21`: the “hERG current change (%, negative = inhibition) at 1uM” value is on record as -5.98%.
In the case of `Cc1ccc(Nc2nc(CSc3nnc(-c4cccnc4)n3-c3ccccc3C)cs2)cc1`, the “hERG current change (%, negative = inhibition) at 1uM” value is 6.22%.
Then `CC(=O)NCc1ccc(C(=O)CSc2nnc(-c3ccncc3)n2Cc2ccccc2)o1`, with 10.7%.
Consider `C=CCn1c(SCC(=O)Nc2cccc3ccccc23)nc(O)c(CC)c1=O`, for which the “hERG current change (%, negative = inhibition) at 1uM” value was 5.01%.
With `FC(F)(F)c1nc(-c2cccnc2)ncc1-c1nnnn1-c1ccccc1` the figure was 5.46%; with `Cc1cccc(CN2CCN(CC(=O)N3CCC4(CC3)OCCO4)C2=O)c1`, 25%; with `CCn1ccnc1CN(C)Cc1cn[nH]c1-c1ccc(OC)c(F)c1`, 6.44%.
As to `O=C(Nc1ccc2ccccc2c1)c1cccnc1`, the “hERG current change (%, negative = inhibition) at 1uM” value is on record as 4.32%.
Then `CCOC(=O)c1ccc2ncc(C(=O)OCC)c(Nc3ccc(N4CCOCC4)cc3)c2c1`, with 11.8%; and `CC1CCCN(CCCNC(=O)c2nn(C)c3c2CSc2ccccc2-3)C1` (centres unmarked), with -66.2%.
For `O=C(Nc1nc2ccc(S(=O)(=O)N3CCCC3)cc2s1)C1CCCO1` (centres unmarked), the “hERG current change (%, negative = inhibition) at 1uM” value amounted to 6.76%.
With `CN(C)c1ccc(N=Nc2ccccc2C(=O)OCC(=O)NC2CCCC2)cc1` the figure was 7.99%; with `O=C(NC(Cc1ccccc1)C(=O)N1CCC2(CC1)OCCO2)C1CCCCC1` (centres unmarked), 5.75%.
Then `CNS(=O)(=O)c1c(C)cc(C)c(N(C)S(=O)(=O)c2ccccc2)c1C`, with 7.59%; and `O=C(COC(=O)CC(c1ccccc1)c1ccccc1)NCc1ccc(Cl)cc1`, with 3.79%.
For the compound `Cc1ccc(C(=O)NCCCNC(=O)c2ccco2)cc1`, the “hERG current change (%, negative = inhibition) at 1uM” value is reported as 10.4%.
As for `CC1Cc2cc(S(=O)(=O)N3CCN(c4ccccc4)CC3)ccc2N1C(=O)C1CC1` (centres unmarked), the “hERG current change (%, negative = inhibition) at 1uM” value worked out at 17.8%.
For `CCSc1nnc(NC(=O)c2nc3nc(C)cc(C)n3n2)s1`, the “hERG current change (%, negative = inhibition) at 1uM” value was found to be 5.24%.
For `O=C(NCC1CCCN(Cc2cccc(OCCO)c2)C1)c1ccc(F)cc1` (centres unmarked), the “hERG current change (%, negative = inhibition) at 1uM” value is reported as 2.83%.
In the case of `Cc1cc(C)c2[nH]c(=O)c(CN(CC3CCCO3)S(=O)(=O)c3ccc4c(c3)OCCO4)cc2c1` (centres unmarked), the “hERG current change (%, negative = inhibition) at 1uM” value was determined as 11.5%.
`O=C(CSc1ncnc2c1oc1ccccc12)NCc1ccco1`: the “hERG current change (%, negative = inhibition) at 1uM” value was -0.31%.
Consider `Cc1nn(-c2ccc([N+](=O)[O-])cc2)c(N)c1-c1ccccc1`, for which the “hERG current change (%, negative = inhibition) at 1uM” value worked out at 3.5%.
As to `Cn1cnnc1SCc1ccc(C(=O)N/N=C/c2cccs2)cc1`, the “hERG current change (%, negative = inhibition) at 1uM” value is listed as 10.6%.
Take `CCC(=O)N1CCN(c2ccccc2NC(=O)c2ccc(OC)c(Cl)c2)CC1`: the “hERG current change (%, negative = inhibition) at 1uM” value is 0.652%.
With `CN(Cc1ccccc1)S(=O)(=O)c1ccc(S(=O)(=O)N(Cc2ccc(F)cc2)C2CCCC2)cc1` the figure was -3.52%; with `COc1ccccc1-n1c(C)nc2cc(C(=O)NCC3CCCO3)ccc21` (centres unmarked), -3.45%.
Consider `CCOc1cc(C(=O)NN2CCOCC2)cc(OCC)c1OCC`, for which the “hERG current change (%, negative = inhibition) at 1uM” value stood at 19%.
For `CC1(c2cccc(Br)c2)NC(=O)N(CC(=O)Nc2cccnc2Cl)C1=O` (centres unmarked), the “hERG current change (%, negative = inhibition) at 1uM” value is given as 14.5%.
Turning to `Cc1cc(=O)oc2cc(OCC(=O)NCCc3c[nH]c4ccc(F)cc34)ccc12`, the “hERG current change (%, negative = inhibition) at 1uM” value came out at 16.1%.
`O=C(O)c1ccccc1NC(=O)c1ccccc1Nc1ccccc1`: the “hERG current change (%, negative = inhibition) at 1uM” value turned out to be 11.9%.
